Source: PubChem BioAssay AID596 (National Center for Advancing Translational Sciences (NCATS), 2007)
About 1,400 (2%) of roughly 71,000 compounds were called active. The shares of active, inactive and inconclusive entries below differ from those in the screen. The call rests on the fitted dose curve; in most records, active means well fitted curve in the direction sought with a large enough effect; inconclusive means small, poorly fitted or top-dose-only effect; inactive means no such curve, though single readings can be large or run the other way. A potency beside an inconclusive call is a rough fit, not a confirmed value.

These compounds were tested against Microtubule-associated protein tau (Homo sapiens) (UniProt P10636) (assay: qHTS Assay for Tau Filament Binding). Conditions: recombinant tau filaments, thioflavin S fluorescence, 15 h, filaments grown with octadecylsulfate alongside compound; series mostly up to 57.1 µM.
Chain of UniProt P10636 (P10636 whole entry, looked up): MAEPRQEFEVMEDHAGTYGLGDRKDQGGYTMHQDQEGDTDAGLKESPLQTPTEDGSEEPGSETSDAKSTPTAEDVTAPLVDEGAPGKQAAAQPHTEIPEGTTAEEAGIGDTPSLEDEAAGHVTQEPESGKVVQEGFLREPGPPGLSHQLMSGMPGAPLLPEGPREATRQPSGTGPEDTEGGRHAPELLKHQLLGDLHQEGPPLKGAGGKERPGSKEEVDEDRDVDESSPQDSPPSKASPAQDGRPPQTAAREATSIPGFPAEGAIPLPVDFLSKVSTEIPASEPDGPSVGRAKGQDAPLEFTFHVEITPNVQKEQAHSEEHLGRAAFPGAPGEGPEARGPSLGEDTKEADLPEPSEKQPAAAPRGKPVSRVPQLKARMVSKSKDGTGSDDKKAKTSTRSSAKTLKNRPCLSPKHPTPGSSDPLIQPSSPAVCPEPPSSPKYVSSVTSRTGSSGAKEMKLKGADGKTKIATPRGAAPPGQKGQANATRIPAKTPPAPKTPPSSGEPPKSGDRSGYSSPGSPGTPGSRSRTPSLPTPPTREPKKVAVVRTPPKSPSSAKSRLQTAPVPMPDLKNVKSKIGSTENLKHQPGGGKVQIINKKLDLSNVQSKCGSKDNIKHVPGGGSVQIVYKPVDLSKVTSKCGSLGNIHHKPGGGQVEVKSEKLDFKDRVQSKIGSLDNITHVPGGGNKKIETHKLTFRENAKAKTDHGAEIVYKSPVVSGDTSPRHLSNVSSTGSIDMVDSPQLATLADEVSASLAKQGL
Method in brief: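 Thioflavine S fluorescence (ex 450, em 510 nm) reports filaments formed from 1 uM human tau plus 30 uM ODS over 15 h at 37 C (10 mM HEPES pH 7.4, 100 mM NaCl, 5 mM DTT); compounds displacing dye or blocking filaments lower signal.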
On the % scale 0 is the no-effect control and ±100 the full control effect; potency means the concentration at half of the fitted maximal effect.

Potency, inactive:
COCCNc1ccnc(-c2ccccc2C)n1
c1ccc(CNc2nc(-c3cccnc3)nc3ccccc23)cc1
COc1ccccc1N1CCN(C(c2ccc(Cl)cc2)c2nnnn2C(C)(C)C)CC1 (stereo unspecified)
COc1cc(C(=O)N(CCc2ccccc2)C2CC3CCC(C2)N3C)cc(OC)c1OC (stereo unspecified)
COC(=O)Cc1c(C)c2ccc(OC(=O)c3ccco3)cc2oc1=O
COc1cccc(-c2ccc3ncnc(NCc4cccs4)c3c2)c1
Cn1c(=O)c2c(nc(CN3CCC(C(N)=O)CC3)n2Cc2c(F)cccc2Cl)n(C)c1=O
O=C(c1ccco1)N1CCC(c2nc(-c3ccc(F)cc3)no2)CC1
O=C(C1CCCN1S(=O)(=O)c1cccc2cccnc12)N1CCc2ccccc21 (stereo unspecified)
COc1ccccc1Nc1nc(N)nc(CSc2nc(C)cc(C)n2)n1
Cn1cccc1C(=O)N1CCC2(CC1)CN(C(=O)Nc1ccccc1)C2
Cc1occc1-c1nnc(SCC(=O)c2ccc(Cl)cc2)n1C
O=C(NCCN1CCOCC1)c1cccc(Cl)c1
CCNc1ncc2nc(C)c(=O)n(CCc3ccccc3)c2n1
O=c1c(CCc2ccccc2)nc2cnc(N3CCNCC3)nc2n1Cc1ccc(F)cc1
COc1ccc(Oc2ncc3nc(C)c(=O)n(Cc4ccc(F)cc4)c3n2)cc1
COc1cc(C(=O)N2CCN(c3cc(Cl)ccc3Cl)CC2)cc(OC)c1OC
O=C(NCC1CCCO1)c1c(O)c2cccc3c2n(c1=O)CC3 (stereo unspecified)

Potency, inconclusive:
N[C@@H]1CCN(O)C1=O 39.8 µM [decreasing]
Nc1ccc(-c2nc3c(Cl)cc(N)cc3[nH]2)cc1 31.6 µM [decreasing]
Cc1ccc(-c2noc(CN(C(=O)CCCCCN3C(=O)c4ccccc4C3=O)C(C)C)n2)cc1 39.8 µM [decreasing]
C[C@H](O)CO[C@H]1[C@H]2O[C@H]3[C@H](O)[C@@H](O)[C@@H](O[C@H]4[C@H](O)[C@@H](O)[C@@H](O[C@H]5[C@H](O)[C@@H](O)[C@@H](O[C@H]6[C@H](O)[C@@H](OC[C@H](C)O)[C@@H](O[C@H]7[C@H](O)[C@@H](OC[C@H](C)O)[C@@H](O[C@H]8[C@H](O)[C@@H](O)[C@@H](O[C@@H]([C@@H]1O)[C@@H](CO)O2)O[C@@H]8CO)O[C@@H]7CO)O[C@@H]6CO)O[C@@H]5CO)O[C@@H]4CO)O[C@@H]3CO 39.8 µM [decreasing]
CO[C@@]12C[C@@H](COC(=O)c3cncc(Br)c3)CN(C)[C@H]1Cc1cn(C)c3cccc2c13 39.8 µM [decreasing]
COc1ccccc1N1CCN(C(=O)Cn2nc(C(F)(F)F)c3c2CCC3)CC1 39.8 µM [decreasing]
Oc1ccc([C@@H]2CNCCc3c2cc(O)c(O)c3Cl)cc1 39.8 µM [decreasing]
COc1ccc(N2CSC3=C(C#N)C(c4cccs4)CC(=O)N3C2)cc1 (stereo unspecified) 31.6 µM [decreasing]
COCCn1c(N)c(C(=O)Nc2sc3c(c2C(=O)OC)CCCC3)c2nc3ccccc3nc21 31.6 µM [decreasing]
COc1ccc(NC2=CC(=O)CC(C)(C)C2)cc1OC 39.8 µM [decreasing]
CSc1nc(N)c2ncn([C@H]3O[C@H](COP(=O)(O)OP(=O)(O)OP(=O)(O)O)[C@@H](O)[C@@H]3O)c2n1 39.8 µM [decreasing]
O=C(CCCN1CCC(O)(c2ccc(Cl)cc2)CC1)c1ccc(F)cc1 39.8 µM [decreasing]
C=CCn1cnc2c(c1=O)c1nc3ccccc3nc1n2/N=C/c1cc(OC)c(OC)c(OC)c1 0.794 µM [decreasing]
CCOC(=O)C1=C[C@@]2(CC)CCCN3CCc4c(n1c1ccccc41)[C@H]32 39.8 µM [decreasing]
O=c1[nH]c2cc(Cl)ccc2c(O)c1-c1cccc(Oc2ccccc2)c1 39.8 µM [decreasing]
COc1ccc([C@@H]2Sc3ccccc3N(CCN(C)C)C(=O)[C@@H]2OC(C)=O)cc1 39.8 µM [decreasing]
COc1cccc2cc(C(=O)NC(C)C3CCCO3)c(=O)oc12 (stereo unspecified) 31.6 µM [decreasing]
O=C(OCc1ccc(F)cc1Cl)c1ccccn1 31.6 µM [decreasing]
CCN(CC)c1ccc(N2C(=O)c3ccccc3C2=O)cc1 10 µM [decreasing]
CSc1ccccc1NC(=O)c1cnccn1 39.8 µM [decreasing]
c1ccc(Nc2cc(-c3ccoc3)ncn2)cc1 12.6 µM [decreasing]
Cc1nc(Nc2ccc(F)cc2)[nH]c(=O)c1CCC(C)C 31.6 µM [decreasing]
CC(=O)Oc1cc(OC(C)=O)c2c(=O)cc(-c3ccc(OC(C)=O)c(OC(C)=O)c3)oc2c1 39.8 µM [decreasing]
COc1cc2nc(N3CCN(C(=O)[C@H]4CCCO4)CC3)nc(N)c2cc1OC 39.8 µM [decreasing]
Cc1cc(C(=O)OCC(=O)c2ccc(Br)s2)no1 25.1 µM [decreasing]
COc1ccc(CCN2C(=O)CC(Nc3ccc(N4CCOCC4)cc3)C2=O)cc1OC (stereo unspecified) 25.1 µM [decreasing]
c1ccc(-c2cc(-c3nc(-c4ccccn4)no3)c3ccccc3n2)cc1 0.794 µM [decreasing]
CC(C)C(C(=O)Nc1ccc2c(c1)OCO2)N1C(=O)c2ccccc2C1=O (stereo unspecified) 20 µM [decreasing]
O=C(c1cnn2c(C(F)F)cc(-c3ccccc3)nc12)N1CCN2CCCC2C1 (stereo unspecified) 12.6 µM [decreasing]
O=C1NC2=C(C(=O)c3ccccc32)C(c2ccccc2)N1 (stereo unspecified) 25.1 µM [decreasing]
Clc1cccc(Nc2nnc(-c3ccccc3)c3ccccc23)c1 39.8 µM [decreasing]
N[C@H](Cn1ccc(=O)n(Cc2ccccc2C(=O)O)c1=O)C(=O)O 39.8 µM [decreasing]
CCN(c1cccc(C)c1)S(=O)(=O)c1cccc2nsnc12 25.1 µM [decreasing]
C[C@@H](N)C(=O)O 31.6 µM [decreasing]
Cc1nc2ccc(NC(=O)Nc3ccnc4cccnc34)cc2o1 39.8 µM [decreasing]
O=C(Nc1ccccc1O)c1cc(S(=O)(=O)N2CCOCC2)ccc1Cl 3.98 µM [decreasing]
COC(=O)[C@@H]1[C@H]2C[C@H]3c4[nH]c5cc(OC)ccc5c4CCN3C[C@@H]2C[C@@H](OC(=O)c2cc(OC)c(OC)c(OC)c2)[C@@H]1OC 39.8 µM [decreasing]
O=S(=O)(c1ccccc1)N1CCC2(CCN(c3ccccc3)CC2)CC1 15.8 µM [decreasing]
CN1[C@H](CC(=O)c2ccccc2)CCC[C@H]1C[C@@H](O)c1ccccc1 39.8 µM [decreasing]
CC(C)COc1ccc(C(=O)OC2CC(C)(C)OCC2CN(C)C)cc1 (stereo unspecified) 3.16 µM [decreasing]
O=C(C1CCN(S(=O)(=O)c2cccc3nsnc23)CC1)N1CCCc2ccccc21 31.6 µM [decreasing]
COc1ccc2c(c1)C=CC1(O2)N(CCO)c2ccccc2C1(C)C (stereo unspecified) 31.6 µM [decreasing]

Potency, active:
COCCn1c(=O)c(-c2cc(F)cc(F)c2)nc2cnc(N3CCNCC3)nc21 3.16 µM
Cc1noc(C)c1COC(=O)CCN1c2ccccc2Sc2ccccc21 20 µM
CN1CCN(c2nc(-c3ccc(N(C)C)cc3)nc3ccccc23)CC1 12.6 µM
CCn1c2ccccc2c2nc3cc(S(=O)(=O)N4CCOCC4)ccc3nc21 25.1 µM
O=C1c2ccccc2C(=O)N1CCCSc1nc2ccccc2o1 3.98 µM
CCC(C)[C@@H](C(=O)Nc1ccc2c(c1)OCO2)N1Cc2ccccc2C1=O (stereo partly specified) 25.1 µM
CN1CCN(c2ncc3nc(-c4ccc(Cl)cc4)c(=O)n(CCC#N)c3n2)CC1 3.16 µM
Cc1nn(Cc2ccccc2)c(C)c1NC(=O)c1cc2nc(-c3ccco3)cc(C(F)(F)F)n2n1 15.8 µM
Cc1onc(-c2ccccc2Cl)c1C(=O)Nc1ccc(-n2nncc2C(C)(C)C)cc1 25.1 µM
Cc1ccc2cccc(S(=O)(=O)Nc3ccc4c(c3)OCO4)c2n1 7.94 µM
COc1ccc2ccccc2c1C1CC(=O)N2CN(C3CCCCC3)CSC2=C1C#N (stereo unspecified) 12.6 µM
Cc1cccc(N2CCN(C(=O)C3CCN(S(=O)(=O)c4cccc5nsnc45)CC3)CC2C)c1 (stereo unspecified) 25.1 µM
COc1ccc(-c2csc3c2[N+]2=CCC=C2C3=O)cc1 3.16 µM
O=S(=O)(Nc1ccc(N2CCOCC2)cc1)c1cccs1 15.8 µM
Cc1onc(-c2ccccc2)c1C(=O)Nc1ccc2c(c1)OCO2 15.8 µM

Activity change, negative = inhibition, inactive:
CC[C@@H]1CC(=O)N(SC[C@H](N)C(=O)O)C1=O -3.3% [at 11.4 µM]
